# Hit rate of the full screen: of about 310,000 compounds, about 2,200 (0.71%) showed an effect of 50% or more. The effect is printed as a negative number. The list shows a part of the results.
# Target: human ether-à-go-go-related gene (hERG) potassium channel (human, UniProt Q12809)
# Assay: primary screen, population patch clamp on CHO cells stably expressing hERG
# Sequence of human ether-à-go-go-related gene (hERG) potassium channel (Q12809 whole entry, looked up): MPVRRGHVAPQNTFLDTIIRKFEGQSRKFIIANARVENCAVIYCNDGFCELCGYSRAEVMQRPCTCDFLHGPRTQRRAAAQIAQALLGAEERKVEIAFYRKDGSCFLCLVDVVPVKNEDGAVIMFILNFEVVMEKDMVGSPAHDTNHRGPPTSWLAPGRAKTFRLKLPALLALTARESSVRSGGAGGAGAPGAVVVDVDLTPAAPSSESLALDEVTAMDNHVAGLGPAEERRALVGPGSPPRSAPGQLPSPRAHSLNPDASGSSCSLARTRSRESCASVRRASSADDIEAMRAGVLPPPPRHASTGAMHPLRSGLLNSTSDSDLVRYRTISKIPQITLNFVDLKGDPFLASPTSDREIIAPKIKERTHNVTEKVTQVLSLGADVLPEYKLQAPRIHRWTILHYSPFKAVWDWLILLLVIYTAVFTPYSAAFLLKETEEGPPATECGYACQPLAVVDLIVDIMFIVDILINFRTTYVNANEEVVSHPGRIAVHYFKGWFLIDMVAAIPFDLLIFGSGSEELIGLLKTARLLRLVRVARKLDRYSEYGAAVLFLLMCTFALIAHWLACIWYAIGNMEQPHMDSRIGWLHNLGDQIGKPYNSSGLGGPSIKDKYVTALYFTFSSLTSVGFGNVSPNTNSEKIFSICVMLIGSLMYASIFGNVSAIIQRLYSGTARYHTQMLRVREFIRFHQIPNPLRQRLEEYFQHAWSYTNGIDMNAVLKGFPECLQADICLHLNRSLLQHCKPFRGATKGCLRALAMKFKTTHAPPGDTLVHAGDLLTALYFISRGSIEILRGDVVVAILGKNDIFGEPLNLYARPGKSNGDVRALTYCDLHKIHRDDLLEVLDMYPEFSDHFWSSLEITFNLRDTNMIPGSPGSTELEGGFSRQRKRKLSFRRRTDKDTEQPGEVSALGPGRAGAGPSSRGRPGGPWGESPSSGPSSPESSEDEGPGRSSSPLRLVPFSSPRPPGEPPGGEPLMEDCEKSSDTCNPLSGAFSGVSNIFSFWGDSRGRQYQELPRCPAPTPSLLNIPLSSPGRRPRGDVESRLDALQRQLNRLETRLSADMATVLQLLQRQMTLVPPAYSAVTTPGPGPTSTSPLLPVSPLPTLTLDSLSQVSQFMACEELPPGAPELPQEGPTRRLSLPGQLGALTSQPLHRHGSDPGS
row,Structure (SMILES),"hERG current change (%, negative = inhibition) at 1uM"
1,O=C(CN1CCc2cc3c(cc2C1)OCCCO3)Nc1ccc(F)cc1,12%
2,CC(C)(C)N(Cc1cc2ccccc2[nH]c1=O)C(=O)c1cccnc1,0.664%
3,COc1ccc(Cc2nc(-c3cccnc3)no2)cc1OC,16.8%
4,COc1ccccc1NC(=O)c1cnc(SCC(=O)NCCc2ccccc2)n(C)c1=O,0.429%
5,NNC(=O)CSCc1ccc(Cl)cc1Cl,-1.45%
6,Cc1ccc(NC(=O)[C@@H]2CCCN2S(=O)(=O)c2ccccc2F)cc1S(=O)(=O)N1CCOCC1,15.7%
7,COc1ccc(S(=O)(=O)N2CCN(CC(=O)c3ccc(O)c(O)c3)CC2)cc1,-16%
8,O=C(COC(=O)C1CC1)NCc1ccccc1Cl,14%
9,COC(=O)c1ccc(Cl)c(NC(=O)CN(c2ccc3c(c2)OCO3)S(C)(=O)=O)c1,0.215%
10,CCOC(=O)c1c(NC(=O)CSc2ncn[nH]2)sc(C(=O)N(C)C)c1C,-0.52%
11,O=C1NC(=Nc2ccccc2)/C(=C/c2ccco2)S1,15.1%
12,COc1ccc(N2C(=O)CC(N3CCN(c4cccc(Cl)c4)CC3)C2=O)cc1 (stereo not shown),14.3%
13,CCCC1(C)SC(NC(C)=O)=NN1C(C)=O (stereo not shown),7.78%
14,CCOc1ccc(NC(=O)CSc2nnc(-c3ccco3)n2C)cc1,-8.86%
15,COCCSc1nnc(NC(=O)c2ccc(NC(C)=O)cc2)s1,17.3%
16,Cc1ccc(CNC(=O)C2CCN(S(=O)(=O)c3cccc4nonc34)CC2)cc1,6.7%
17,CCNc1ncnc2c1cnn2C,7.62%
18,c1ccc(Oc2cccc(NC3=NCCC3)c2)cc1,6.47%
19,Cc1ccc(/C(N)=N/OC(=O)c2cccs2)cc1,15.3%
20,CC1(C)COC(Cn2c3ccccc3c3ccccc32)O1 (stereo not shown),12.1%
21,COc1cccc(NC(=O)CSc2ncnc3c2cnn3Cc2ccccc2)c1,3.64%
22,CC(C)C(=O)Nc1ccc(C(=O)N/N=C/C2CC3C=CC2C3)cc1 (stereo not shown),16%
23,CN(C)C(=O)c1ccc(NS(=O)(=O)c2ccc3c(c2)OCCO3)cc1,7.41%

row,Structure (SMILES),"hERG current change (%, negative = inhibition) at 1uM"
1,O=C(NCC1CCCO1)C1c2ccccc2Oc2ccccc21 (stereo not shown),20.5%
2,O=C(NN1C(=O)/C(=C/c2ccc(O)cc2)SC1=S)c1cccc(O)c1,13.5%
3,Cc1cccc(C)c1NC(=O)CNC(=O)c1ccc(NS(=O)(=O)c2ccc3[nH]c(=O)[nH]c3c2)cc1,13.7%
4,O=C(c1ccco1)N1CCN(C(=O)C2CC(=O)N(c3ccccc3)C2)CC1 (stereo not shown),-1.56%
5,O=C(CNc1cc(S(=O)(=O)N2CCOCC2)ccc1NCC1CCCO1)Nc1ccc(C(F)(F)F)cc1 (stereo not shown),4.81%
6,COCCCNC(=O)c1ccc(Cn2c(=O)c3ccccc3n(Cc3ccc(C)cc3)c2=O)cc1,11.4%
7,COCCCn1cnc2c(c1=O)c1nc3ccccc3nc1n2-c1ccccc1,-2.6%
8,COc1ccccc1C(=O)COC(=O)CNS(=O)(=O)c1ccc(C)c(C)c1,15.1%
9,CCOC(=O)c1ccccc1NC(=O)CSc1nc2ccccc2c(=O)[nH]1,4%
10,COc1nc(NC(C)=O)nc(C)c1Br,-5.53%
11,O=C(CSc1nnc(-c2ccc3c(c2)OCO3)o1)Nc1ncc(C(F)(F)F)cc1Cl,-0.135%
12,O=C1NC(=O)C2(CCCc3ccccc32)N1 (stereo not shown),14.5%
13,NC(=O)CSC1=Nc2ccccc2C2=NC(CCC(=O)NCc3ccc(F)cc3)C(=O)N12 (stereo not shown),15.2%
14,COCC1CCN(Cc2cn(Cc3ccccc3)nc2-c2cc3ccccc3o2)CC1,-22.2%
15,O=C(NN1C(=O)C2C(c3ccccc3)C=CC(c3ccccc3)C2C1=O)c1ccncc1 (stereo not shown),1.31%
16,Cc1c(N(C)C)c(=O)n(-c2ccccc2)n1C,13.2%
17,Cc1cccc(N(CC(=O)NC(C)C)C(=O)CCC(=O)Nc2nccs2)c1,11.1%
18,CCN(CC)S(=O)(=O)c1ccc(NC(=O)c2ccccn2)cc1,12.8%
19,CC(=O)Nc1ccc(N2C(=O)CSC2c2cccc(Br)c2)cc1 (stereo not shown),7.46%
20,CC(=O)Nc1ccc(Oc2cncc(Cl)c2)nc1,11.3%
21,CCOc1ccccc1NC(=O)c1oc2ccccc2c1NC(=O)C1CC1,3.73%
22,C=CCNC(=O)C1CC=CCC1C(=O)O (stereo not shown),8.78%
23,CCn1c(C)c(C(C)=O)c(NCc2ccccc2)nc1=S,-0.405%
